# Experimental data reported in paper PMC12751073, “Unconventional binding of calmodulin to CHK2 kinase inhibits catalytic activity” (Biochemical Journal, 2025).
# Columns and labels:
# [1] = molecular target: T1, Calmodulin (recombinant, produced in-house) (human, UniProt P0DP23); assay: cross-linking; DMTMM (zero-length) cross-linking with mass spectrometry; CHK2 and CaM 1:5 molar ratio; 50 mM HEPES pH 7.5, 2 mM CaCl2; 30 min at room temperature; conditions: both partners purified
# T1 construct: called human CaM in the HDX methods; The His6 tag was cleaved with TEV 'for applications where the absence of His6 tag was desirable'; also called CaM; Ca^2+-CaM; source: E. coli BL21-CodonPlus-RIL, purified (Ni-NTA, SEC)
# His6-tagged calmodulin = molecular target: T2, His6-tagged calmodulin (human, UniProt P0DP23); assay: far-Western, overlay or dot blot; full-length recombinant proteins spotted on nitrocellulose (2 µl; ~2 µg), probed overnight with His6-CaM (1 mg/ml; 1:1000 dilution) with CaCl2 (200 µM in the methods, 500 µM in the legend); detected with anti-His6-HRP; conditions: both partners purified
# T2 construct: called human CaM in the HDX methods; His6 tag detected with anti-His6-HRP in the far-Western; also called His6-CaM; CaM; source: E. coli BL21-CodonPlus-RIL, purified (Ni-NTA, SEC); not shown: His6, N-terminal, kept
binder,measurement,setting,value
"Full-length recombinant human CHK2 ([…]) (enzyme, human CHK2, called full-length with […] stated in the methods; also called CHEK2; Checkpoint kinase 2; source: E. coli BL21-CodonPlus-RIL, purified (glutathione resin, TEV cleavage, SEC); not shown: GST, N-terminal, cleaved) not shown",binding result,[1],binds
same,binding result,His6-tagged calmodulin,binds
